Measured values as given in the supplement of paper PMC3334620.
In all, about 33,000 sequences were measured (“E-score (-0.5 to 0.5)”: median about -0.017, highest 2% from about 0.3 on). The list shows a part of the results.

biological target: T1, Sut1 (UniProt P53032); test: PBM E-score (8-mer binding enrichment) (E-score (-0.5 to 0.5)); higher = stronger / more preferred TF binding; most listed sequences are background and not binding sites; conditions: protein concentration: 200 nM; construct: GST-full length
T1 sequence: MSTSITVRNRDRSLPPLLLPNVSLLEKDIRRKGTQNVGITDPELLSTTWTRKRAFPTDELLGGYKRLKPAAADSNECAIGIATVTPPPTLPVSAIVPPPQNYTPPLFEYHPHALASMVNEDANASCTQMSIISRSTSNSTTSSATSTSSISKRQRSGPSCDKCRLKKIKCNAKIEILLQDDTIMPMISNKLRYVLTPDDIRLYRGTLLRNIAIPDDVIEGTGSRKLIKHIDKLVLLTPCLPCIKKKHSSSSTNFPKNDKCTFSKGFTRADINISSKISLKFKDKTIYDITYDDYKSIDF
Summary of the method: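 Each ungapped eight-base word and its reverse complement, pooled, received an E-score from the Universal PBM Analysis Suite. Underlying scans, normalised with masliner, recorded fluorescent anti-GST bound to GST-tagged yeast transcription factors. These were applied at about 100-200 nM to universal all-10-mer Agilent arrays double-stranded by primer extension.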

Row | Sequence | PBM E-score
1 | CCTAATCC | -0.122
2 | AATAAATC | 0.157
3 | GAGTTGAA | 0.18
4 | AGAGCGGG | -0.0998
5 | CGAAGGCC | -0.0887
6 | ACCCATCA | -0.0944
7 | AGGGCCCA | -0.111
8 | AACTGGCT | -0.151
9 | ATCGGTGG | 0.00941
10 | ATCCGATG | 0.146
11 | CAGAGCAC | -0.147
12 | GATCTGGC | -0.0935
13 | GGGGGCAC | -0.356
14 | GAATGGGC | -0.0942
15 | CGCACGCG | -0.172
16 | CCCCTTCC | -0.238
17 | ATTCACAA | 0.259
18 | ACTAAAGG | 0.0043
19 | AATGTATC | 0.167
20 | AGAAGAAC | 0.0233
21 | CGCATGAA | -0.154
22 | AGGCACAT | -0.101
23 | CACACACA | -0.0394
24 | AACATGAG | -0.125
25 | ATGGCAAA | 0.039

Row | Sequence | PBM E-score
26 | AAACATCC | -0.0177
27 | CTACACGA | 0.0194
28 | CTAACTAG | 0.302
29 | CAGCAGAA | -0.176
30 | CCTGCGAA | -0.033
31 | GCGTCGAA | -0.0605
32 | CCCATCCC | -0.319
33 | TCCCGTCA | -0.0175
34 | CGCGATGA | -0.0517
35 | AATCGAGG | -0.0701
36 | AATGTCTG | -0.0542
37 | CTCCACAG | -0.327
38 | AGCAGGGA | -0.0562
39 | AAAACCGA | 0.173
40 | CCTGAAGA | 0.0536
41 | GAACGACC | -0.258
42 | TCATGACA | 0.124
43 | ATTAATCA | 0.235
44 | ATGTACCC | -0.0323
45 | ACAACCAG | 0.0393
46 | CAATGTAA | 0.0482
47 | CAAGTGAG | -0.146
48 | AATAGAGT | -0.0302
49 | TAAAACGA | -0.0128
50 | ACATTCCA | 0.177

Row | Sequence | PBM E-score
51 | TGCTTCAA | 0.0485
52 | GGCTGCAA | -0.0943
53 | ACCTGCCA | -0.272
54 | ATCCCAGA | -0.198
55 | TCTATGAA | 0.102
56 | CCAAAACA | -0.0644
57 | CCACAGAG | -0.208
58 | AACCGGAC | 0.345
59 | ACGGAAAA | 0.243
60 | CGCGAGAG | -0.0211
61 | ATGGTCAC | -0.0331
62 | AGTCACAT | 0.0198
63 | TGTGGTAA | 0.0309
64 | CGTTAAGA | -0.00015
65 | TAATCGGA | 0.308
66 | ATCCTCGA | -0.12
67 | CTCACAAC | 0.0656
68 | GAGATCCC | 0.118
69 | ACCGGCCA | -0.164
70 | AGGCCGCC | -0.331
71 | ACCTCAGA | -0.224
72 | GAGATAAA | 0.196
73 | AATGGATC | 0.0349
74 | ATGTAGCG | -0.181
75 | ACCTCTCG | -0.047

Row | Sequence | PBM E-score
76 | AGGCAGTG | -0.0722
77 | ATAGAGGA | -0.169
78 | ATAGGGTG | -0.0316
79 | GTTGGATA | 0.0887
80 | TCATATCA | 0.0743
81 | CCATCCAC | -0.15
82 | CCGCAACG | 0.132
83 | ATTATCAA | 0.216
84 | AACTGATC | -0.125
85 | AGGCTCTA | -0.156
86 | CCCATCGG | 0.0634
87 | ACTCTTGG | -0.0854
88 | CTCCGACA | 0.375
89 | ATCGCTCC | -0.0547
90 | TCAAGAGA | 0.0718
91 | CATAAGGA | -0.134
92 | AGTCATCC | -0.01
93 | GCGCGTAC | 0.0594
94 | CAGCCCGG | -0.0483
95 | CAGGATCG | -0.177
96 | ACTAGCGC | -0.066
97 | CCCGGAAA | 0.234
98 | AAAGAGAG | 0.00234
99 | AATGGAAG | -0.0298
100 | CTGCCGAA | 0.095

Row | Sequence | PBM E-score
101 | CACTACCC | -0.269
102 | ACGACATC | -0.166
103 | ACTGGCGA | -0.352
104 | CCTGGAAG | -0.246
105 | ACACCGAG | 0.186
106 | CAATTTCG | 0.0158
107 | ACTAATCA | 0.139
108 | TACGGGAA | -0.264
109 | AGGAGTTA | 0.164
110 | CGGGAGAA | -0.00885
111 | ACCACCCG | -0.316
112 | AACGTATG | -0.0742
113 | CAAGAGGG | -0.225
114 | ATGGATGA | -0.0218
115 | CCTCATGA | -0.0557
116 | TCACATCA | -0.011
117 | AGGGCTAT | -0.211
118 | ACCTAGTC | -0.0573
119 | ATCCGTTG | 0.121
120 | TACACGAA | 0.239
121 | GACCACCC | -0.232
122 | ACCTTGAA | 0.0129
123 | CCGGAGCC | 0.396
124 | ATACGATA | 0.209
125 | GCCTGGCC | -0.145

Row | Sequence | PBM E-score
126 | CCTATCCA | -0.0287
127 | GACTATGC | 0.0066
128 | ACGTAAGT | -0.0302
129 | AAGCCTTG | -0.109
130 | ACGAACTG | -0.123
131 | AAATTACG | 0.17
132 | AGGGATGC | -0.255
133 | ACTATGAC | -0.0263
134 | ATTTGTCG | 0.153
135 | GCTCAGCC | -0.158
136 | GGGACCAA | -0.115
137 | AAGGATTC | -0.201
138 | CAAACTAA | 0.276
139 | AATATACT | 0.277
140 | AGTAGTAG | -0.00718
141 | CCTTACAA | -0.0231
142 | ACTTGCCC | -0.116
143 | CTCCGCCA | 0.171
144 | GAGGGGCC | -0.25
145 | TATGGTGA | 0.031
146 | CGATCCCG | -0.145
147 | CTGTCGGC | 0.00912
148 | AGCGTGGC | -0.0467
149 | AATCTATG | 0.111
150 | GATTTGAC | -0.0268

Row | Sequence | PBM E-score
151 | CCAGCTGC | -0.124
152 | CGAAACCC | 0.0597
153 | ACACGCTG | -0.187
154 | ATAAGCTC | 0.149
155 | ACTTCGCT | 0.00937
156 | CATAGTTA | 0.133
157 | CCCTGACA | -0.211
158 | CCCCGCGA | -0.0503
159 | ATAGCCCA | -0.013
160 | CAATTTGA | 0.215
161 | TACAACGA | 0.0849
162 | CGGAGGTC | 0.235
163 | GAGGACAA | -0.223
164 | CAAGTGTA | 0.00933
165 | ACAAGGAA | 0.0178
166 | CTACTATA | 0.281
167 | GCGCGCAA | -0.131
168 | AAGTTGGT | 0.188
169 | ACAATCCC | 0.12
170 | AGTACTCA | 0.0483
171 | CCGGGATA | 0.113
172 | CGCCGTCC | 0.00935
173 | GGGGGTTA | -0.405
174 | GTACCGGA | 0.342
175 | AGTCGTGA | -0.169

Row | Sequence | PBM E-score
176 | CGGGCGAC | -0.232
177 | CTATGTGC | 0.00565
178 | ACTAGAGA | 0.0596
179 | AGCATGCG | 0.0622
180 | CCGGTCTC | 0.0394
181 | AGCAGAAC | -0.0462
182 | CGGGAATA | 0.194
183 | GGGGTTAC | -0.00588
184 | CTTGGACC | -0.338
185 | GACCATAC | -0.00899
186 | GGCGACCC | -0.172
187 | ACGTTGGC | -0.126
188 | CGTATTGC | -0.0654
189 | AAGTTCAG | 0.0298
190 | GACTGGTA | -0.0269
191 | AGCACTTG | -0.283
192 | AAACGCAG | 0.00497
193 | AGTTAAGA | 0.0414
194 | CGCTGACC | -0.136
195 | ACCTTCCC | -0.177
196 | CTAGCACC | -0.00964
197 | GAGGTCGA | -0.082
198 | GTGGATAA | 0.0944
199 | AGGCCTTG | -0.23
200 | AAACAACG | 0.167

Row | Sequence | PBM E-score
201 | CGGCCCGC | -0.162
202 | CGGTAGAG | -0.0633
203 | AGGCTGGC | -0.307
204 | AGAAGCCT | 0.0166
205 | AGAATAAC | 0.0729
206 | AAAATATC | 0.218
207 | CGGTACAA | 0.0752
208 | AGTCCATG | -0.00201
209 | GCTGATCC | -0.201
210 | ACCTGAAC | -0.106
211 | TCACCCAA | 0.0728
212 | GCCGTCGA | -0.19
213 | ATTGCCGC | -0.0411
214 | ATGGAGGG | -0.315
215 | GGCTCCCA | -0.12
216 | CAACCACC | -0.00156
217 | AAGATGGG | -0.0695
218 | CGTTCTAA | 0.234
219 | GCAGCTAC | 0.0107
